Results: PubChem BioAssay AID2546 (National Center for Advancing Translational Sciences (NCATS), 2010)
“And” between values parts separate entries of the source, which are not always exact repeats. Equal values may be shown once. Out of some 310,000 compounds screened, about 11,000 (3.5%) were called active. This list was built around the results that the source calls inconclusive (neither active nor inactive); the mix of calls is not that of the screen. The call rests on the fitted dose curve; in most records, active means well fitted inhibition curve with a large enough effect; inconclusive means small, poorly fitted or top-dose-only effect, or effect the other way; inactive means flat fitted curve, though single readings scatter. Where the call is inconclusive, the potency comes from a doubtful curve fit. Some structures have more than one record in an assay (separate samples or runs), and their calls can disagree.
On the % scale 0 is the no-effect control and ±100 the full control effect; potency means the concentration at half of the fitted maximal effect; tags describe the fitted curve by direction and shape.

Test: VP16 counterscreen qHTS for inhibitors of ROR gamma transcriptional activity;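 further: Gal4-VP16 expression switched on by copper sulfate through the metallothionein promoter; nearly all actives have a fitted effect of over 50% in size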
Details: Drosophila S2 Gal4-VP16 UAS-luciferase, luminescence, 20 h; series mostly up to 53.6 µM; activity, negative = inhibition: at the top concentration
In the case of `S=c1[nH]nc(Cn2c(-c3ccccn3)nc3ccccc32)n1-c1ccc2c(c1)OCCO2`, the Potency is reported as inconclusive: 12.6 µM [inhibitor, partial curve].
With `S=C=NCc1ccccc1` the Potency was inconclusive: 22.4 µM [inhibitor, single point].
In the case of `COc1cccc(N2CCN(CC(=O)Nc3ccc(SC(F)F)cc3)CC2)c1`, the Potency is reported as inconclusive: 35.5 µM [inhibitor, single point].
For `Cc1ccc(C(c2nnnn2Cc2ccccc2)N2CC=C(c3ccc(F)cc3)CC2)cc1` (stereo not given), the “activity, negative = inhibition” value was inactive: -16.2%.
In the case of `C=CCN1C(=O)/C(=C/c2ccc3c(c2)CCCN3CCC)C(=O)NC1=S`, the Potency is reported as inconclusive: 35.5 µM [inhibitor, single point].
In the case of `N#CC(C#N)=Cc1ccc(O)c(O)c1`, the Potency is reported as active: 14.1 µM.
With `CC(=O)C1CCC2C3CCC4CC(O)CCC4(C)C3CC(O)C12C` (stereo not given) the “activity, negative = inhibition” value was inactive: 16.7%.
With `CCC(=NC(C)c1ccccc1)c1c(O)n(C)c(=O)n(C)c1=O` (stereo not given) the Potency was active: 12.6 µM.
For `Nn1cnnc1`, the “activity, negative = inhibition” value was inactive: 4.74%.
With `Cc1ccc(/C=C/C(=O)C2C(=O)c3ccccc3C2=O)cc1` the Potency was inconclusive: 3.55 µM [inhibitor, full curve].
In the case of `Cc1ccsc1-c1nc(CSCC(=O)N2CCC3(CC2)OCCO3)c(C)o1`, the “activity, negative = inhibition” value is reported as inactive: 2.93%.
In the case of `Cc1cc(C)cc(N2C(=O)NC(=O)/C(=C/c3cccn3-c3ccc(Cl)cc3)C2=O)c1`, the Potency is reported as active: 11.2 µM.
With `O=CC=O` the “activity, negative = inhibition” value was inactive: -5.04%.
In the case of `C=CCc1ccc(OCCn2nnc3ccccc32)c(OC)c1`, the Potency is reported as inconclusive: 14.1 µM [inhibitor, partial curve, poor fit].
For `Nc1nc(N)nc(-c2ccc(Oc3ccccc3)cc2)n1`, the Potency was inconclusive: 35.5 µM [inhibitor, single point].
With `CC(C)c1cc2c(c(O)c1O)[C@@]1(C(=O)O)CCCC(C)(C)[C@@H]1CC2` the Potency was inconclusive: 35.5 µM [inhibitor, single point].
For `c1ccc(N2CCC3(CCNCC3)CC2)nc1`, the “activity, negative = inhibition” value was inactive: -7.39%.
For `COC(=O)C(O)(c1ccc(N=Cc2ccccc2O)c(C)c1)C(F)(F)F` (stereo not given), the “activity, negative = inhibition” value was inactive: 0.243%.
With `Cc1nc(-c2ccc(-c3ccc(C(=O)N4CCc5cc6c(cc54)C4(CCN(C)CC4)CO6)cc3)c(C)c2)no1` the Potency was inconclusive: 31.6 µM [inhibitor, single point].
For `Cc1ccc(NC(=O)COC(=O)/C=C/c2ccco2)cc1S(=O)(=O)N(C)C`, the Potency was inconclusive: 35.5 µM [inhibitor, single point].
For `Nc1ccc(C2(c3ccc(N)cc3)CCCCC2)cc1`, the Potency was inconclusive: 17.8 µM [inhibitor, single point].
With `C[C@H]1CCCC(=O)CCCCCc2cc(O)cc(O)c2C(=O)O1` the Potency was inconclusive: 35.5 µM [inhibitor, single point].
With `COc1ccc(-n2c(CN3CCOCC3)nc3ccccc3c2=O)c(OC)c1` the “activity, negative = inhibition” value was inactive: -5.42%.
In the case of `CCN(CC)C(=O)c1ccc(NC(=O)Nc2ccccc2F)cc1`, the Potency is reported as inconclusive: 14.1 µM [inhibitor, partial curve, poor fit].
In the case of `CC(C)CON=O`, the “activity, negative = inhibition” value is reported as inactive: -3.81%.
For `Cc1ccc(-c2cn3c(=S)[nH]nc3s2)cc1`, the Potency was inconclusive: 10 µM [inhibitor, partial curve].
With `O=C(c1cc(-c2ccc(Cl)cc2)n(-c2ccc(Cl)cc2Cl)n1)N1CCOCC1` the Potency was inconclusive: 35.5 µM [inhibitor, single point].
For `O=C(O)c1cc(O)c(O)c(O)c1`, the Potency was inconclusive: 17.8 µM [inhibitor, single point].
In the case of `CC(C)(C)c1cc(OC(=O)Cc2ccccc2)ccc1O`, the Potency is reported as inconclusive: 28.2 µM [inhibitor, single point].
For `Clc1ccc(C2(Cn3cncn3)OCCO2)c(Cl)c1`, the “activity, negative = inhibition” value was inactive: -9.11%.
For `CCC(C)C(=O)O[C@@H]1C[C@@]2(C)C(c3ccoc3)OC(=O)CC23OC2(C)O[C@@]14[C@@]1(C)C(CC(=O)OC)C5(C)CC1(O)C(O)(C5OC(=O)C1(C)OC1C)C(OC(C)=O)[C@@]34O2` (stereo not given in full), the “activity, negative = inhibition” value was inactive: -14.6%.
In the case of `O=C(CNC(=O)c1ccc(Br)cc1)NCC(=O)OCC(=O)c1ccc([N+](=O)[O-])cc1`, the Potency is reported as inconclusive: 3.16 µM [activator, single point].
For `Cc1cc(OC(=O)CCCNC(=O)OC(C)(C)C)c2c3c(c(=O)oc2c1)CCC3`, the Potency was inconclusive: 3.16 µM [inhibitor, partial curve, poor fit].
With `O=C(c1csnn1)N1CCC2(CC1)CN(Cc1ccncc1)C2` the “activity, negative = inhibition” value was inactive: -10.3%.
With `CN(C)C=C1C(=O)N(C2CCCCC2)C(=O)N(C2CCCCC2)C1=O` the “activity, negative = inhibition” value was inactive: 6.06%.
For `CCCCCCCCCOc1ccc2[nH]cc(CCN)c2c1`, the Potency was inconclusive: 28.2 µM [inhibitor, single point] and inconclusive: 891 nM [inhibitor, partial curve].
For `CCCCCCCCCCCCCCCC[N+](C)(C)C`, the Potency was “inactive and inconclusive: 25.1 µM [inhibitor, single point]”.
In the case of `Cc1ccc2cc(C=C(C#N)C#N)c(Cl)nc2c1`, the Potency is reported as inconclusive: 35.5 µM [inhibitor, single point].
With `CCN(CC)C(=O)c1ccc(NC(=S)NC(=O)CCc2ccccc2)cc1` the Potency was inconclusive: 17.8 µM [inhibitor, single point].
In the case of `CNC(C(=O)c1ccccc1)C(OC)c1cccc([N+](=O)[O-])c1` (stereo not given), the “activity, negative = inhibition” value is reported as inactive: 9.31%.
With `CN1C[C@H](CNC(=O)OCc2ccccc2)C[C@@H]2c3cccc4c3c(cn4C)C[C@H]21` the Potency was “inactive”.
In the case of `C=CC(=O)OCC(CO)(COC(=O)C=C)COC(=O)C=C`, the Potency is reported as active: 5.62 µM.
For `CNC(=O)Oc1ccc(-c2cn3cc(Cl)ccc3n2)cc1`, the Potency was inconclusive: 5.62 µM [inhibitor, partial curve].
In the case of `CCCCCn1c(=O)c(C(=O)NCc2ccccc2)c(O)c2ccccc21`, the Potency is reported as inconclusive: 35.5 µM [inhibitor, single point].
In the case of `CCOC(=O)C(SP(=S)(OC)OC)c1ccccc1` (stereo not given), the Potency is reported as inconclusive: 17.8 µM [inhibitor, single point].
For `O=C(CCl)c1ccccc1`, the Potency was inconclusive: 15.8 µM [inhibitor, single point].
With `Cc1ccc(/C=C2/C(=O)NC(=O)N(CCc3ccc(F)cc3)C2=O)o1` the Potency was inconclusive: 35.5 µM [inhibitor, single point].
With `O=C(c1ccc2c(c1)OCO2)C1CCCN(Cc2ccccn2)C1` (stereo not given) the Potency was inconclusive: 35.5 µM [inhibitor, single point].
With `Cc1ncc(CN2CCCC(C(=O)c3ccc(C(C)(C)C)cc3)C2)s1` (stereo not given) the Potency was inconclusive: 35.5 µM [inhibitor, single point].
With `CC/C=C\C/C=C\C/C=C\C/C=C\C/C=C\CCCC(=O)NCCCC(=O)O` the “activity, negative = inhibition” value was inactive: 0.439%.
For `CCOC(=O)C1(CCOc2ccccc2)CCN(C(C)CSC)CC1` (stereo not given), the “activity, negative = inhibition” value was inactive: -0.139%.
With `COc1ccc(-c2cc(=NCCCCCC(=O)O)c3cc(C)ccc3o2)cc1` the “activity, negative = inhibition” value was inactive: -11.7%.
In the case of `CCOc1ccc(-c2nc3ccc(-c4nc5ccc(N6CCN(C)CC6)cc5[nH]4)cc3[nH]2)cc1`, the Potency is reported as inconclusive: 12.6 µM [inhibitor, partial curve, poor fit].
In the case of `CN(Cc1ccccc1)C(=O)Cn1c(=O)oc2cc(S(=O)(=O)NCc3ccccc3)ccc21`, the Potency is reported as inconclusive: 35.5 µM [inhibitor, single point].
With `CN(C)P(=O)(CCl)Nc1ccccc1` (stereo not given) the Potency was inconclusive: 5.62 µM [activator, single point].
For `COC1=CC(=O)O[C@@H](/C=C/c2ccccc2)C1`, the “activity, negative = inhibition” value was inactive: -0.926%.
In the case of `COc1cccc(-n2c(=S)[nH]c3ccccc3c2=O)c1`, the Potency is reported as inconclusive: 35.5 µM [inhibitor, single point].
In the case of `CCc1nc2ccc(N3CCN(C)CC3)cc2nc1CC`, the “activity, negative = inhibition” value is reported as inactive: 10%.
In the case of `COC(=O)C(O)(c1ccc(N(C)C)cc1)C(F)(F)F` (stereo not given), the “activity, negative = inhibition” value is reported as inactive: -6.11%.
With `COc1ccc(Cn2c(=O)oc3ccc(C)cc32)cc1OC` the Potency was inconclusive: 35.5 µM [inhibitor, single point].
For `COc1ccccc1N1C(=O)NC(=O)/C(=C/c2ccc3c(c2)Cc2ccccc2-3)C1=O`, the Potency was inconclusive: 11.2 µM [inhibitor, partial curve].
For `O=C(/C=C/c1ccccc1)NCCc1cnc[nH]1`, the Potency was inconclusive: 0.447 µM [inhibitor, single point].
With `CCN1CCN(Cc2cc(Br)cc(Br)c2O)CC1` the Potency was inconclusive: 35.5 µM [inhibitor, single point].
In the case of `COc1ccc(C(=O)O/N=C(/C(N)=O)P(=O)(OC(C)C)OC(C)C)cc1`, the Potency is reported as active: 7.94 µM.
With `COc1cc2c(cc1/C=C/[N+](=O)[O-])OCO2` the Potency was inconclusive: 6.31 µM [inhibitor, single point].
For `O=C(c1c[nH]c(C(=O)C(Cl)(Cl)Cl)c1)c1ccccc1Cl`, the Potency was inconclusive: 35.5 µM [inhibitor, single point].
With `CCN(CC(=O)Nc1ccc(C#N)c(Cl)c1)CC(=O)NC(C)(C)C` the activity, negative = inhibition was inactive: 3.29% [at 10 µM].
In the case of `N#CC(C#N)=NNc1cccc(Cl)c1`, the Potency is reported as active: 0.631 µM.
With `COC(=O)C(O)(c1ccc(NC(=S)NC(=O)c2ccc(Cl)cc2Cl)cc1)C(F)(F)F` (stereo not given) the Potency was inconclusive: 35.5 µM [inhibitor, single point].
With `Cc1ccc(/C=C2\C(=O)NC(=S)N(c3ccccc3F)C2=O)s1` the Potency was inconclusive: 35.5 µM [inhibitor, single point].
With `O=C(Oc1ccccc1)N1CCC[C@@]2(CCN(C(c3ccccc3)c3ccccc3)C2)C1` the “activity, negative = inhibition” value was inactive: 19.5%.
For `C[CH2][Hg][S]c1ccccc1C(=O)O`, the Potency was active: 0.631 µM.
In the case of `Cc1nc2ccccc2c(=O)n1-c1ccc(Cl)c(Cl)c1`, the “activity, negative = inhibition” value is reported as inactive: -7.64%.
With `Cc1cc([C@@H]2CCCN2C)on1` the “activity, negative = inhibition” value was inactive: 3.38%.
With `S=c1[nH]nc(-c2ccco2)n1-c1cccc2ccccc12` the Potency was active: 12.6 µM.
